Results reported in ChEMBL document CHEMBL4888484, “Replenishing the malaria drug discovery pipeline: Screening and hit evaluation of the MMV Hit Generation Library 1 (HGL1) against asexual blood stage Plasmodium falciparum ,using a nano luciferase reporter read-out” (2022).
Out of some 150,000 compounds screened, about 540 (0.36%) showed an effect of 50% or more. The list shows a part of the results.

Tested on: Plasmodium falciparum
Experiment: Primary screen in NF54 nanoGlo assay, in single point, at 2uM, 72h; a lower Z score goes with more inhibition
Assay type: functional, Erythrocyte
Settings: timepoint 72 hour

SMILES | % Inhibition [%] | Z score
CN(C)Cc1nc(Cc2cccnc2)nn1CCCO | -6 | 0.79
CC(C)Cc1nsc(NCC#CCO)n1 | 2 | -0.23
CCNC(=O)CN(CC)C(=O)NCCc1ccccc1Br | -2 | 0.3
C[C@@H](CN1CCCCCC1)NCCc1ccncc1 | 1 | -0.1
O=C(CCn1cccn1)N1CCC[C@H](N(CCN2CCCC2)C(=O)C2CCC2)C1 | -9 | 1.14
COCCn1nc(C)c(CNc2nc(C3CC3)ns2)c1C | -6 | 0.62
Cc1cc(N2CCC3(CCCN3Cc3cc(C#N)n(C)c3C)CC2)c2ccccc2n1 | 44 | -7.68
CN(Cc1cnn(C)c1)C(=O)C1=NN(c2ccccc2)C(=O)CN1 | -3 | 0.5
COC1(CO)CCN(c2ncnc3[nH]ccc23)CC1 | -4 | 0.69
COCCn1c(C)cnc1C[C@H]1CCCN(S(=O)(=O)Cc2ccccc2F)C1 | 10 | -1.57
Cn1c(-c2ccccc2Cl)cn2cc(C(=O)N3CC[C@H](O)C3)nc2c1=O | -13 | 1.73
COc1ccc(N2C(=O)CN(C(=O)Cc3cscn3)CC23CCCC3)cc1 | -11 | 1.48
CC#CCNC(=O)[C@@H]1CCC[C@H](C(=O)NCC#CC)C1 | -15 | 1.61
C[C@H]1CCCN(Cc2nc3ccccc3o2)C1 | -19 | 2.62
COc1cc(NC(=O)c2ccc3ccccc3n2)c(OC)cc1NC(=O)c1ccccc1 | 18 | -2.21
O=S(=O)(c1ccc2c(c1)OCCO2)N1CC=C(C(F)(F)F)CC1 | -10 | 0.93
Cc1c(-c2cnn(C)c2)nc(N)c(C#N)c1-c1cccc(Cl)c1 | -1 | 0.19
COC(=O)c1c(-c2ccccc2)c2ccccc2n1-c1ccccc1 | -14 | 1.59
CCCc1nnsc1C(=O)NCc1ccnc(N2CCCC2=O)c1 | -13 | 1.97
CC1CCN(c2ccc(NC(=O)NC3CCCCC3)cc2C(=O)NC[C@H]2CCCO2)CC1 | -5 | 0.89
COc1ccc(CCNC(=O)C2CC(c3cccc(C)c3)CN(Cc3ccccc3)C2)cc1 (stereo not drawn) | -5 | 0.87
COc1cc(F)ccc1-c1ccnc2nc(C3CCC3)nn12 | 7 | -0.92
Cc1cncc(CN2CCCC2CC(O)c2cnn(C)c2)c1 (stereo not drawn) | -4 | 0.45
CNC(=O)[C@@H]1C[C@@H](NCc2ccccc2Cl)CN1C1Cc2ccccc2C1 | 16 | -1.99
Cc1nnc(N(C)C[C@H]2CCN(C)C2(C)C)c2ccccc12 | -4 | 0.61
C=CCN1C(=O)COc2ccc(-c3csc(NC(=O)C(c4ccccc4)c4ccccc4)n3)cc21 | -6 | 1.05
Cc1nc(C)c(C(=O)N[C@H](c2cccs2)C2CCOCC2)s1 | -16 | 2.08

SMILES | % Inhibition [%] | Z score
O=C(COc1ccccc1)NCc1noc(-c2ccccc2)n1 | 1 | -0.22
Cc1nn(-c2ccccc2)c(C)c1C(=O)NCc1ccco1 | 3 | -0.55
CCC[C@H]1CN(C(=O)CCc2cccnc2)CCN1C(=O)CCc1cccnc1 | -7 | 0.92
C[C@@H](Cc1cncc2ccccc12)C(=O)N(C)c1cnn(C)c1 | 5 | -0.54
CN(C)C(=O)c1cccc(CCN2C(=O)N[C@@H](C(C)(C)C)C2=O)c1 | 0 | -0.04
Cc1cc(CNc2nnc(-c3ccc4c(c3)CCC4)o2)ccc1C#N | -1 | 0.16
CC(C)(C)c1ccc([C@@H](O)CNc2ncccc2S(C)(=O)=O)cc1 | -13 | 1.55
COCCn1ccc2c(OCC(=O)N3CCC[C@H]3c3nc4ccccc4n3C)cccc21 | -10 | 1.63
COCCN(CC(=O)N(C)C)c1cnc2cc(Cl)c(Cl)cc2n1 | -10 | 1.63
Cc1c(C(=O)N[C@@H]2C=CCCC2)cccc1N1CCNC1=O | 0 | -0.03
CN(Cc1nccn1CC(F)(F)F)C(=O)c1ccc(CNC(=O)c2cccs2)cc1 | 0 | 0
CC1=NS(=O)(=O)N(C)C=C1C(=O)OCc1nc(C2CCCCC2)no1 | -7 | 0.63
CCOc1ccnc(N(C)CCc2ccncc2)n1 | -7 | 1.25
CC(NC(=O)Cc1ccccc1C(=O)NC(C)c1ccncc1)c1ccncc1 (stereo not drawn) | -6 | 0.71
CN(C)CCOC(=O)CC[C@H]1CCOC(C)(C)C1 | 39 | -5.02
Cc1cc(S(=O)(=O)[C@H]2CS(=O)(=O)C[C@@H]2N2CCN(c3ccccc3F)CC2)ccc1F | -7 | 0.92
CCOC(=O)[C@H]1CCCN(C(=O)CN2CCN(c3ccc(F)c(F)c3)C2=O)C1 | -12 | 1.4
OC[C@H]1CCCN1c1cccc(C(F)(F)F)n1 | -7 | 0.97
OC[C@@H](Cc1ccccc1)n1cnnc1 | -2 | 0.28
CC1CC1C(=O)NCc1cccc(NC(=O)NCc2ccncc2)c1 (stereo not drawn) | 0 | -0.06
Cc1ccc([C@@H]2c3[nH]c4ccccc4c3CCN2S(=O)(=O)c2ccc(Cl)cc2)cc1 | 3 | -0.64
CC(C)(C)c1nc(C#N)c(NC[C@@H](c2ccco2)N2CCCC2)o1 | 1 | -0.11
Cc1cc(-c2ccccc2)nc2oc3c(N4CCOCC4)ncnc3c12 | -44 | 5.19
COc1ccc(CCNC(=O)C[C@H](c2ccc(C(C)(C)C)cc2)c2c[nH]c3ccccc23)cc1OC | -10 | 1.32
COCc1nc(C(=O)N[C@H](c2nccs2)C(F)(F)F)co1 | -1 | 0.13
Cc1ccc2ccc3cc(C(=O)Nc4ccc(C)c(C)c4)[nH]c3c2n1 | 1 | -0.22
O=C(CCOc1ccccc1)N(Cc1cccnc1)c1ccc(F)cc1 | -5 | 0.67
